# Patent US20210299101A1, “SYSTEMS, METHODS, AND KITS FOR DIAGNOSTICS AND TREATMENT OF VIRAL RESPIRATORY INFECTION” (priority 2020, published 2021)
# Where two headings read alike, the source gives them in different places. Non-standard residues stand in square brackets, D forms with d. Residues, ends and D or L forms follow the SMILES beside them. *: point of attachment. dPhe(4-NHCONH2) = NC(=O)Nc1ccc(C[C@@H](N)C(=O)O)cc1; Dihydroorotyl(S) = O=C1C[C@@H](C(=O)*)NC(=O)N1; dPhe(4-Cl) = N[C@H](Cc1ccc(Cl)cc1)C(=O)O; Phe(4-NH2) = Nc1ccc(C[C@H](N)C(=O)O)cc1; d2Nal = N[C@H](Cc1ccc2ccccc2c1)C(=O)O; Lys(iPr) = CC(C)NCCCC[C@H](N)C(=O)O; d3Pal = N[C@H](Cc1cccnc1)C(=O)O
# Columns and labels:
# SARS-CoV-2 [1] = assay type: in vivo, human
# SARS-CoV-2 [2] = test system: SARS-CoV-2
# SARS-CoV-2 [3] = assay type: in vivo, human; remark: listed apart in the source
# SARS-CoV-2 [4] = test system: SARS-CoV-2; remark: listed apart in the source
# SARS-CoV-2 [5] = assay type: in vivo, human; details: monitored one month; 300 mg orally once daily; of 50 subjects (standard care 8 of 40)
# Description: Example 19: A controlled study was conducted on 90 male patients with average age of 51 years old. […] The treatment arm was prescribed nilutamide (300 mg) orally once daily at the start of the trial, the control arm received standard care.
# The patients BCRSS score was 1.3.
# SARS-CoV-2 [6] = assay type: in vivo
# SARS-CoV-2 [7] = assay type: in vivo; details: monitored one month; 75 mg/m2 IV over 1 hour; of 8 subjects (standard care 2 of 8)
# SARS-CoV-2 [8] = details: monitored one month; 300 mg orally twice daily; of 20 subjects (standard care 3 of 20)
# [9] = Brescia-COVID Respiratory Severity Scale, admitted patients only
smiles,measurement,setting,value
CNC(=O)c1ccc(N2C(=S)N(c3cnc(C#N)c(C(F)(F)F)c3)C(=O)C23CCC3)cc1F [apalutamide],average BCRSS score of admitted patients,"SARS-CoV-2 [1]; Brescia-COVID Respiratory Severity Scale, 13 admitted patients (placebo 5.4)",3.2
same,subjects admitted to the hospital after their first visit,"SARS-CoV-2 [1]; monitored one month, 240 mg (60 mg, 4 tablets daily), of 200 subjects (placebo 49 of 200)",13 subjects
CC(O)(CS(=O)(=O)c1ccc(F)cc1)C(=O)Nc1ccc(C#N)c(C(F)(F)F)c1 (stereo not shown) [bicalutamide],average BCRSS score of admitted patients,SARS-CoV-2 [2]; [9],5.3
same,subjects admitted to the hospital after their first visit,"SARS-CoV-2 [2]; monitored one month, bicalutamide 50 mg 1 tablet daily, each arm of 88",9 subjects
same,average BCRSS score of admitted patients,SARS-CoV-2 [3]; 6 admitted patients (standard care 4.1),1.9
same,subjects admitted to the hospital after their first visit,"SARS-CoV-2 [3]; monitored one month, 50 mg once daily, of 50 subjects (standard care 17 of 50)",6 subjects
CC(=O)N[C@H](Cc1ccc2ccccc2c1)C(=O)N[C@H](Cc1ccc(Cl)cc1)C(=O)N[C@H](Cc1cccnc1)C(=O)N[C@@H](CO)C(=O)N[C@@H](Cc1ccc(NC(=O)[C@@H]2CC(=O)NC(=O)N2)cc1)C(=O)N[C@H](Cc1ccc(NC(N)=O)cc1)C(=O)N[C@@H](CC(C)C)C(=O)N[C@@H](CCCCNC(C)C)C(=O)N1CCC[C@H]1C(=O)N[C@H](C)C(N)=O [degarelix] (Ac-[d2Nal][dPhe(4-Cl)][d3Pal]S[Phe(4-NH2)](Dihydroorotyl(S))[dPhe(4-NHCONH2)]L[Lys(iPr)]P[dA]-NH2),average BCRSS score of admitted patients,SARS-CoV-2 [4]; [9],4.6
same,subjects admitted to the hospital after their first visit,"SARS-CoV-2 [4]; monitored one month, degarelix 120 mg subcutaneous at start, combination arm of 80, degarelix alone of 60",12 subjects
CC1(C)NC(=O)N(c2ccc([N+](=O)[O-])c(C(F)(F)F)c2)C1=O [nilutamide],subjects admitted to the hospital after their first visit,SARS-CoV-2 [5],3 subjects
C[C@]12CC[C@H](O)CC1=CC[C@@H]1[C@@H]2CC[C@]2(C)C(c3cccnc3)=CC[C@@H]12 [abiraterone],average BCRSS score of admitted patients,SARS-CoV-2 [6]; 4 admitted patients (standard care 4.7),1.8
same,subjects admitted to the hospital after their first visit,"SARS-CoV-2 [6]; monitored one month, 500 mg twice daily, of 75 subjects (standard care 15 of 75)",4 subjects
CC(=O)O[C@@]12CO[C@@H]1C[C@H](O)[C@@]1(C)C(=O)[C@H](O)C3=C(C)[C@@H](OC(=O)[C@H](O)[C@@H](NC(=O)OC(C)(C)C)c4ccccc4)C[C@@](O)([C@@H](OC(=O)c4ccccc4)[C@H]21)C3(C)C [docetaxel],subjects admitted to the hospital after their first visit,SARS-CoV-2 [7],0 subjects
CC(O)c1cc(C(=O)N[C@@H](C)Cn2ccc(-c3ccc(C#N)c(Cl)c3)n2)[nH]n1 (stereo partly shown) [darolutamide],subjects admitted to the hospital after their first visit,SARS-CoV-2 [8],1 subjects
